# Assay results as given in PubChem BioAssay AID504832 (National Center for Advancing Translational Sciences (NCATS), 2011).
# Hit rate of the full screen: of about 310,000 compounds, about 18,000 (5.8%) were called active. The shares of active, inactive and inconclusive entries below differ from those in the screen. Calls follow the shape of the dose curve; as a rule, active = well fitted inhibition curve with a large enough effect; inconclusive = small, poorly fitted or top-dose-only effect, or another doubt; inactive = no such curve, though single readings can be large or run the other way. No potency is given beside an inconclusive call; the fits are too rough.
# Assay: Primary qHTS for delayed death inhibitors of the malarial parasite plastid, 48 hour incubation
# Details: P. falciparum luciferase growth in erythrocytes; series mostly up to 28.7 µM; activity change, negative = inhibition: at the top concentration
# In short: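 Read-out is firefly luciferase luminescence from an integrated reporter in P. falciparum, so falling signal marks reduced parasite growth. Infected erythrocytes were at 2% hematocrit and 0.1% parasitemia (final) in Albumax-supplemented RPMI 1640.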
# % is scaled to controls: 0 for no effect and ±100 for the full control effect; potency is read from the fitted curve at half-maximal effect; tags tell the direction and shape of the fitted curve.
Compound,Potency,"activity change, negative = inhibition"
COc1cccc(C(c2c(N)n(C)c(=O)n(C)c2=O)C(C)[N+](=O)[O-])c1 (configuration not stated),"inconclusive [inhibitor, single point]",
CC(C)C[C@H](NC(=O)N1CCn2c1nc1ccccc12)C(=O)NCCc1ccccc1,"inconclusive [inhibitor, single point]",
CNC(=O)c1ccccc1NC(=O)c1cccc(S(=O)(=O)N2CCCCC2)c1,"inconclusive [inhibitor, single point]",
Cn1c(=O)c2c(SCC(=O)NCC3CCCO3)nc(-c3ccccc3Cl)nc2n(C)c1=O (configuration not stated),"inconclusive [inhibitor, single point]",
COc1ccc2[nH]c3c(=O)n(/N=C/[C@H]4C(C)C=C(C)CC4C)c(=O)[nH]c3c2c1 (some centres not stated),"inconclusive [inhibitor, single point]",
Cc1nn(Cc2cccc(C(=O)NCC(C)C)c2)c(C)c1Br,"inconclusive [inhibitor, single point]",
CCc1cccc2c(C(=S)N3CCOCC3)c[nH]c12,,inactive: -13.5%
CC(C)c1onc(C(=O)N(C)C2CCCCC2)c1[N+](=O)[O-],"inconclusive [inhibitor, single point]",
O=C(Nc1c2c(nc3ccccc13)CCCC2)c1ccccc1Cl,,inactive: 18.1%
Cc1c(C(=O)N2CCC(C)CC2)sc2ncn(CC(=O)N3CCC(C)CC3)c(=O)c12,,inactive: -12%
CC(C)N(CCO)Cc1nc(C(c2ccccc2)c2ccccc2)no1,"inconclusive [inhibitor, partial curve, poor fit]",
COc1cccc(NC(=O)COC(=O)c2ccccc2F)c1,,inactive: 8.9%
O=C(N/N=C/c1cccc(Oc2ccccc2)c1)c1ccccc1F,"inconclusive [inhibitor, partial curve]",
COc1ccc(N2CCN(C(=O)c3ccc(COc4ccc5c(C)cc(=O)oc5c4)cc3)CC2)cc1,"inconclusive [inhibitor, partial curve, poor fit]",
CCC(NC(=O)C1C2C=CC(C2)C1C(=O)O)c1ccc(C)cc1 (configuration not stated),,inactive: -8.1%
CCn1cc(C(=O)N2CC=C(c3ccccc3)CC2)c(=O)c2ccc(C)nc21,"inconclusive [inhibitor, single point]",
Cc1ccccc1C(OCCN(C(C)C)C(C)C)c1ccccc1 (configuration not stated),"inconclusive [inhibitor, single point]",
O=C1/C(=C\c2ccc(O)c(O)c2)SC(=S)N1Cc1ccccc1,active: 13.1 µM,
CC(=O)c1ccc2c(c1)c1ccccc1n2CC(C)C,,inactive: -5.48%
CCOC(=O)C1(CCCc2ccccc2)CCN(S(=O)(=O)N(C)C)CC1,"inconclusive [inhibitor, single point]",
COc1ccc(/C(C)=N/NC(=O)CNC(=O)/C=C\c2ccco2)cc1,,inactive: 20.6%

Compound,Potency,"activity change, negative = inhibition"
Cc1cccc(C)c1NC(=O)N1CCCCCCC1,,inactive: 13.5%
CCOc1ccccc1CN1CCN(C/C=C/c2ccc(OC)cc2)CC1CCO (configuration not stated),"inconclusive [inhibitor, partial curve, poor fit]",
O=c1[nH]c(=O)n(C2CCCCCC2)c(O)c1C=NCc1ccc(F)cc1,"inconclusive [inhibitor, partial curve, poor fit]",
COc1ccc(/C=C/c2nc(-c3ccccc3O)n(-c3ccccc3)n2)cc1,"inconclusive [inhibitor, full curve, poor fit]",
Cc1cccc(C(=O)Nc2ccc3c(c2)C(=O)N(CC(C)C)C3=O)c1,"inconclusive [inhibitor, single point]",
CC(C)=CCN1CCN(CC#Cc2ccccc2)CC1CCO (configuration not stated),"inconclusive [inhibitor, full curve, poor fit]",
COC(=O)c1cc(-c2ccc(OC)cc2F)nc2nc(SC)[nH]c(=O)c12,"inconclusive [inhibitor, partial curve, poor fit]",
FC(F)(F)Oc1ccc(NC(=S)Nc2ccc(OC(F)(F)F)cc2)cc1,"inconclusive [inhibitor, single point]",
C/C(=N/O)c1ccc2c(c1)OCCOCCOc1cc(/C(C)=N/O)ccc1OCCOCCO2,"inconclusive [inhibitor, single point]",
CCC1CCCCN1CCCNC(=O)c1cn(C)c2ccc(S(=O)(=O)N3CCOCC3)cc2c1=O (configuration not stated),"inconclusive [inhibitor, single point]",
CC(C)Oc1ccc(C(=O)NC(=S)Nc2ccc(CN3CCOCC3)cc2)cc1,"inconclusive [inhibitor, partial curve]",
CN(C)c1ccc(C(CNC(=O)c2ccc(C#N)cc2)c2c[nH]c3ccccc23)cc1 (configuration not stated),"inconclusive [inhibitor, single point]",
CC(=O)Oc1ccccc1/C=C/c1ccc2ccccc2[n+]1C,"inconclusive [inhibitor, single point]",
O=S(=O)(Cc1ccccc1)/C1=C(\N2CCOCC2)CCCCCC1,"inconclusive [inhibitor, full curve, poor fit]",
CCC(C)C(NC(=O)/C(=C\c1ccccc1)NC(=O)c1ccc(OC)cc1)C(=O)O (configuration not stated),,inactive: 34.5%
C/C(=N/Nc1ncc(C(F)(F)F)cc1Cl)c1ccncc1,"inconclusive [inhibitor, partial curve, poor fit]",
Cc1ccc(N2CC(=O)Nc3c(sc4nc(C)cc(C)c34)C2=O)cc1,"inconclusive [inhibitor, full curve]",
Clc1ccc(Cc2nc(-c3ccncc3)no2)cc1,"inconclusive [inhibitor, single point]",
O=S(=O)(c1ccc(-c2nnc(SCc3nnc(-c4ccccc4)o3)o2)cc1)N1CCCC1,"inconclusive [inhibitor, single point]",
Cc1ccc2nc(SCC(=O)OCc3ccccc3)nc(=O)n2c1,,inactive: 3.16%
COc1ccc(OC)c(-n2c(-c3cc(-c4ccccc4)n[nH]3)n[nH]c2=S)c1,,inactive: -15.9%
